Among the data in paper PMC12136788 are binding signal values, retold here.

Sequences and labels used below:
B1: chr17:21098601:21098602:+_ENSMUSG00000007564_ENSMUST00000007708|mus_hu|FALSE|FALSE (ssRNA)
RNA: GGGAGUUCUACAGUCCGACGAUCGGCCAAGACCUUGGGGAUGAUUGUGGCAUGGGCCCACUCCUUCCCAAACUUUUCCACUAGCUUCUUCAGGUUGCUGGUGGCUGCCUCGCGGAUGGCAUAUACAUGAUCCACAAGCCAGGCCAACAGAGGAUUGAGCAUCA
B2: chr8:87366250:87366251:-_ENSMUSG00000003814_ENSMUST00000003912|mus_mus|FALSE|FALSE (ssRNA)
RNA: GGGAGUUCUACAGUCCGACGAUCGAGCAGAUGAAAUCUCAAGCCUAGGGCUUCUCCUCUACACCCCUGUUCCUAGAGUUGGAGGGUAGUGACCAAAAGAUGGAGAAAGGGAGGGACAGAAGGAAAAGAUGUUGAUUCAAAAAUCAACAGAGGAUUGAGCAUCA
B3: chr1:39494447:39494448:+_ENSG00000168653_ENST00000372967|hu_mus|hu_hu_hu_mus_False|58_88 (ssRNA)
RNA: GGGAGUUCUACAGUCCGACGAUCGCACCGAGCGGCGUUCUUAUAGGGCUGUUCACCGCUUAGGAACAUAAAGUGCCGAUCUAUGUUGAUGCCCAGCUUUUUCUGUAUGUCAAGGAAAGGCAUGGCUCUGCAGUGCCCUUGUCACAACAGAGGAUUGAGCAUCA
B4: chr2:47387610:47387611:-_ENSG00000143933_ENST00000272298|hu_hu|motif|central (ssRNA)
RNA: GGGAGUUCUACAGUCCGACGAUCACGCAGAGUUACAACUCCACACUUCAACAACAACAUGCUGACAGUUCCUAAAGAAAACGGCUUUAAAAAAGGCAUAACCCAGAUGUUCCCUCAUUUGACCAACUCCAUCUAAGUUUAGAUCAACAGAGGAUUGAGCAUCA
B5: chr17:65740002:65740003:+_ENSG00000130935_ENST00000581375|hu_hu|hu_hu_hu_mus_False|78_78 (ssRNA)
RNA: GGGAGUUCUACAGUCCGACGAUCAACAAAUCUUUCUUCCCUGGACGAACAGGAAGACAUAAAAGAGAAAAAAUAUAUAUCCAUCAAGUUAGGUGUGGUGGCCACACCUUUACUCCCAGCACUUUGGGAGGUGGAUCUCUGAGUCAACAGAGGAUUGAGCAUCA
B6: chr13:97419175:97419176:-_ENSMUSG00000021670_ENSMUST00000022176|mus_mus|motif|central (ssRNA)
RNA: GGGAGUUCUACAGUCCGACGAUCUGAAACUUUACAUACAACAGCAAAGGCAAUCUUCCACAAUAAUACUGACACAAUCACGGAGAGGCUCCCAUGCUGCCGCGGCACUCUUGGAAUGUCUUUCAGAGUCCAUCUUCUACACAACAACAGAGGAUUGAGCAUCA
B7: chr1:217782781:217782782:-_ENSG00000092978_ENST00000366934|hu_hu|motif|central (ssRNA)
RNA: GGGAGUUCUACAGUCCGACGAUCUUUUGAUGUGUUUCAGGUAUCAGACAAAGCAGAUAAUUUAAAAGGUAAAUGAUUCGGCGGGUGCAGACUAGUUAUCACUGUGGCUAAUUUAAAACGAGGAUGAUUUUUGCAGUACAAUGACAACAGAGGAUUGAGCAUCA
B8: 95091120_95091240_1271_3pUTR_ENSG00000164292_ENST00000379982|human|control|control (ssRNA)
RNA: GGGAGUUCUACAGUCCGACGAUCAGAGAACGAUCUUGUGGGCCUCUACAACUUUCUUUAAAUUGGGGUUGUAAAAUACCACGUCCACACACUGGCAGCAGAACAGCAAGUUAUUUAAGUCAGAGUUAUAAUGUGACGCUUCAGCAACAGAGGAUUGAGCAUCA
B9: 75855418_75855538_1702_CDS_ENSG00000035403_ENST00000372755|human|control|control (ssRNA)
RNA: GGGAGUUCUACAGUCCGACGAUCAGCCAGCUGGGCUGUCAGCUGGUCCACUCGGUCACACUUGGCGAGAAGAUCUUGCCGAUAAGGCCCCAUCAUAACAUUAGCCAGACGAUGCCCUUCGGCCACAAGCCCCCGGAUGGCAGCCAACAGAGGAUUGAGCAUCA
B10: 65113432_65113740_929_CDS_ENSG00000133884_ENST00000252268|human|control|control (ssRNA)
RNA: GGGAGUUCUACAGUCCGACGAUCAAAUUGGAGGCAAGAUGGAUGCCCUGAGCGGCCACAGUCAGAACAGGACACCAGCUCCUCGGGUUGUCCCGUCUUCUUGUUAAUCUUUGAGUCCCCCAGGCAGAAGUCACAGUAGUUGUUCAACAGAGGAUUGAGCAUCA
B11: chr7:80921385:80921386:+_ENSMUSG00000078670_ENSMUST00000107456|mus_hu|FALSE|FALSE (ssRNA)
RNA: GGGAGUUCUACAGUCCGACGAUCAGGCGAAACUGCCUUCCUGGCAGGCGGAGGCUGCCGAGCUCCCAUGCCCCUUCCCACAUAUCCCAACUCUUCUCAGAAAACUGAAGAACCGAAGAUGGAGGUGAGUCAGGAAAGGCUGGACAACAGAGGAUUGAGCAUCA
B12: 72668181_72680867_410_3pUTR_ENSMUSG00000031201_ENSMUST00000033544|mouse|control|control (ssRNA)
RNA: GGGAGUUCUACAGUCCGACGAUCUAUGAGGGUGGGAAUGAUACCAGCCAACAACUCUCAUGGGACGACCUGUUAGUUCAGCCAACCUUUCUGCCUCUGUUGAAGCUGCAGACAGCUGCUCUGGAGAAAUUUCUACACGGUCCUCAACAGAGGAUUGAGCAUCA
B13: chr14:62153831:62153832:-_ENSMUSG00000021930_ENSMUST00000100496|mus_hu|FALSE|FALSE (ssRNA)
RNA: GGGAGUUCUACAGUCCGACGAUCCCCAAAUGCUUAUUUUCAUUUCACAAAACAUAAAGUAUUUUAAAUCACAACUUCAGGGUGGUAUACUGAAUACAUUGGUUCCUUAGACAGCAUCAACAAGCAUAUUUUUAAGAAUAUAUUCAACAGAGGAUUGAGCAUCA
B14: chr11:87794976:87794977:-_ENSMUSG00000020483_ENSMUST00000020775|perfect_dup|motif|central (ssRNA)
RNA: GGGAGUUCUACAGUCCGACGAUCGCAACGCCGCCUGCUUGCCAUCGCUGCCGCCGCCACGGACACCUUCGCCUCGGCCACCGGGCCCGACUUGAAGAGGAGGAUUGCAACUUGACCCAAGUAAAAAUAGAUGAAGUGCUUUGUCAACAGAGGAUUGAGCAUCA

Some of the results follow.

In this assay the target is T1, UNK ZnF1-3 (human, UniProt Q9C0B0 31-174).
T1 sequence: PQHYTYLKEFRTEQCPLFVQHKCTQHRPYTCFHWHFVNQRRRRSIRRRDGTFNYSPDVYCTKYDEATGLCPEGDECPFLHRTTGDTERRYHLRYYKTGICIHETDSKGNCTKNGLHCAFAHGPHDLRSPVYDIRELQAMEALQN
Briefly: nsRBNS (natural sequence RNA bind-n-seq); RBNS binding buffer (assumed for nsRBNS): 25 mM Tris pH 7.5, 150 mM KCl, 3 mM MgCl2, 0.01% Triton X-100, 500 ug/ml BSA, 20 U/ml SUPERase-In, 4 C; UNK is unkempt and MSI1 is Musashi-1; names of the RNAs are library labels; protein concentration not given here; high values mean tight binding.
B1: the binding signal stood at 1.02 enrichment R. In the case of B2 it was 1.61 enrichment R; in that of B3, 0.701 enrichment R. Molecule B4 returned a binding signal of 1.06 enrichment R. For B5, the binding signal was determined as 0.913 enrichment R. In the case of B6 it was 0.999 enrichment R; in that of B7, 1.8 enrichment R; in that of B8, 1.51 enrichment R.

B9 displayed a binding signal of 0.831 enrichment R. B10 displayed a binding signal of 0.884 enrichment R. To B11 belongs 0.854 enrichment R. Take B12: the binding signal worked out at 1.19 enrichment R. To B13 belongs 1.5 enrichment R; to B14, 1.82 enrichment R.
